# From PubChem BioAssay AID686978 (National Center for Advancing Translational Sciences (NCATS), 2013)
# Several values for one entry are separate records, joined by “and”; a condition that tells them apart may be missing. Equal entries are not always repeated. The campaign covered roughly 420,000 compounds. About 64,000 (15%) were called active. This list was built around the results that the source calls inconclusive (neither active nor inactive); the mix of calls is not that of the screen. Calls follow the shape of the dose curve; as a rule, active = well fitted inhibition curve with a large enough effect; inconclusive = small, poorly fitted or top-dose-only effect; inactive = flat fitted curve, though single readings scatter. A potency beside an inconclusive call is a rough fit, not a confirmed value.
# Test: qHTS for Inhibitors of human tyrosyl-DNA phosphodiesterase 1 (TDP1): qHTS in cells in absence of CPT; also: nearly all actives have a fitted effect of over 55% in size
# Details: DT40 Tdp1-/- hTDP1 cells, no CPT, ATP luminescence, 48 h; activity change, negative = growth inhibition: at 46.2 µM (top of the series) unless noted
# Method in brief: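 Stably hTDP1-transfected Tdp1-null chicken DT40 cells were treated with library compounds minus camptothecin and grown for at least 48 hr at 37 °C, after which cellular ATP was quantified by luminescence.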
# % is scaled to controls: 0 for no effect and ±100 for the full control effect; potency is read from the fitted curve at half-maximal effect; tags tell the direction and shape of the fitted curve.
SMILES,Potency,"activity change, negative = growth inhibition"
Cc1cc(-c2ccc(S(=O)(=O)N(C)c3ccc(C)c(C)c3)s2)on1,active: 4.11 µM,–
COc1cccc(C2CC(c3cccs3)=NN2C(=O)CSc2nc3ccccc3o2)c1OC (stereo not given),active: 23.1 µM,–
COC1OC(COC(=O)c2ccccc2)C(OC(=O)c2ccccc2)C1OC(=O)c1ccccc1 (stereo not given),"inconclusive: 29.1 µM [inhibitor, single point]",–
CCCC1=C(C(=O)OCC)C(c2ccco2)C(C#N)=C(N)O1 (stereo not given),inactive,–
COc1ccc(C(=O)N2CCNC(=O)C2)cc1S(=O)(=O)Nc1ccc(Br)cc1,inactive,–
CCN1C(=O)CC(C(C)C)N(C2CCCC2)c2nc(Nc3ccc(C(=O)NC4CCN(C)CC4)cc3OC)ncc21 (stereo not given),"inconclusive: 23.1 µM [inhibitor, single point]",–
CCC1(c2ccccc2)NC(=O)N(CC(=O)NC2CCCC2)C1=O (stereo not given),inactive,–
C[C@H](CO)N1C[C@H](C)[C@@H](CN(C)C(=O)Nc2ccccc2)Oc2c(NC(=O)Nc3ccc(C(F)(F)F)cc3)cccc2C1=O,"inconclusive: 20.6 µM [inhibitor, single point]",–
Cc1ccc(NC(=S)NC2CCN(Cc3ccccc3)CC2)cc1C,active: 25.9 µM,–
Cc1ccc(NC(=S)NC2CCSc3ccccc32)cc1 (stereo not given),"inconclusive: 29.1 µM [inhibitor, single point]",–
Cc1cc(=O)[nH]c(N/N=C/c2sccc2C)n1,inactive,–
CC12CCC(=O)N1C(C(=O)Nc1ccccc1N1CCCCC1)CS2 (stereo not given),"inconclusive: 29.1 µM [inhibitor, single point]",–
CCc1cc2c(=O)[nH]c(Cc3ccc(OC)cc3)nc2s1,"inconclusive: 4.61 µM [inhibitor, full curve]",–
Cc1cc(OC(C)C)nc(-c2ccccc2O)n1,inactive,–
CCC(CC)c1nn2c(=O)cc(COc3ccc(NC(=O)c4ccccc4Cl)cc3)nc2s1,active: 2.31 µM,–
CC(=O)/C(=C\c1ccccc1)CC(=O)O,inactive,–
COc1ccccc1-c1ccc(SCc2cccc(F)c2)nn1,"inconclusive: 29.1 µM [inhibitor, single point]",–
CS(=O)(=O)NNC(=O)c1cc2cc3ccccc3nc2s1,inactive,–
NC(=O)c1cc(S(=O)(=O)N2CCN(c3ccc(F)cc3)CC2)cs1,inactive,–
Cc1ccccc1NC(=O)Nc1nnc(CC(=O)NCc2ccccc2)s1,inactive,–
COc1cccc2[nH]c3ccccc3c(=O)c12,"inconclusive: 18.4 µM [inhibitor, single point]",–
Cc1cccc(CNS(=O)(=O)c2ccc3[nH]c(=O)ccc3c2)c1,inactive,–
Cc1cc(C=O)c(C)n1-c1ccc(Cl)c(C(=O)O)c1,inactive,–
C/C(=N\N1CCN(c2ccccc2)CC1)c1ccncc1,inactive,–
Cc1ccc(/C=C/C(=O)Nc2nc3ccccc3[nH]2)cc1,"inconclusive: 29.1 µM [inhibitor, single point]",–

SMILES,Potency,"activity change, negative = growth inhibition"
COc1ccc(C(=O)NC(=S)N2CCCc3ccccc32)cc1OC,"inconclusive: 23.1 µM [inhibitor, single point]",–
CC1CCCCN1CCCNC(=O)Cn1ncc2c([nH]c3ccccc32)c1=O (stereo not given),inactive,–
CC(=O)Nc1ccc(N2C(=O)CC(Sc3nc(C)cc(C)n3)C2=O)cc1 (stereo not given),inactive,–
O=C(COc1ccc(S(=O)(=O)N2CCOCC2)cc1)Nc1ccc(Br)cc1,"inconclusive: 29.1 µM [inhibitor, single point]",–
OC1(c2ccc3c(c2)OCO3)CCN(Cc2ccccn2)CC1,inactive,–
CCCCn1c(O)c(N=NC(=O)c2ccncc2)c2cc(Br)ccc21,"inconclusive: 29.1 µM [inhibitor, single point]",–
CCN1C[C@@H]2[C@@H]3C(=O)N(Cc4ccccc4)C(=O)[C@@H]3[C@](CC)(C(=O)OC)N2C1=NC1CCCCC1,"inconclusive: 29.1 µM [inhibitor, single point]",–
O=C(CCCN=C1NS(=O)(=O)c2ccccc21)OCC(=O)c1ccc(F)c(F)c1,inactive,–
Cc1cc(C)c(C)c(OCCn2ccnc2)c1,"inconclusive: 18.4 µM [inhibitor, single point]",–
CC(C)(C)C1(O)CC(C(F)(F)F)=NN1C(=O)Cc1ccc([N+](=O)[O-])cc1 (stereo not given),"inconclusive: 20.6 µM [inhibitor, partial curve]",–
COC(=O)[C@H](CC(C)C)NC(=O)Cn1cnc(C(=O)Nc2ccc(C)c(C)c2)n1,inactive,–
Cn1c(=O)c2c(ncn2CCOC(=O)C(C)(C)Oc2ccc(Cl)cc2)n(C)c1=O,"inconclusive: 33.5 µM [inhibitor, single point] and inconclusive: 29.1 µM [inhibitor, single point]",–
CCOCCCN(CC(=O)NC1CCCC1)C(=O)C(=O)Nc1ccc2c(c1)OCCO2,inactive,–
Cc1ccc(C(=O)COC(=O)c2ccc3c(c2)C(=O)N(c2cccc4ncccc24)C3=O)cc1C,"inconclusive: 23.1 µM [inhibitor, single point]",–
CC(C)NC(=O)NC(=O)COC(=O)c1cc(S(=O)(=O)N2CCCCC2)ccc1N1CCOCC1,"inconclusive: 18.4 µM [inhibitor, partial curve]",–
N#Cc1c(NC(=O)C2CC(Cl)=CCC2C(=O)O)sc2c1CCCC2 (stereo not given),inactive,–
N#CC1=C(N)N(c2ccc(Oc3ccccc3)cc2)C(=O)C1,"inconclusive: 11.6 µM [inhibitor, partial curve, poor fit]",–
COc1cccc(Nc2nc(-c3cccnc3)cs2)c1,–,inconclusive: -31.7% [inhibitor]
COc1ccc([C@H]2C(C(=O)O)=C[C@@H](CC3CCCC3)N2S(=O)(=O)c2ccc(C)cc2)cc1OC,inactive,–
Cc1ccc(C)c(N2CCN(CCCNC(=O)Cn3c(=O)c4cccn4c4cccnc43)CC2)c1,"inconclusive: 25.9 µM [inhibitor, single point]",–
Cc1ccc(Cn2nnc3c(=O)n(CC(=O)OCc4ccccc4)cnc32)cc1,active: 16.4 µM,–
COc1ccc(C)cc1NC(=O)c1cc(S(=O)(=O)NC2CCCCCC2)ccc1F,"inconclusive: 29.1 µM [inhibitor, single point]",–
CSCCC(c1nc2ccccc2[nH]1)n1c(/C=C/c2ccc(F)c(F)c2)nc2ccccc21 (stereo not given),"inconclusive: 20.6 µM [inhibitor, single point]",–
COc1ccc(Cn2c(=O)[nH]c3cc(C(=O)N4CCN(c5cc(C)ccc5C)CC4)ccc3c2=O)cc1,"inconclusive: 18.4 µM [inhibitor, single point]",–
CC(C)(C)c1ccc(NC(=O)CSc2n[nH]c(=O)n2-c2cccnc2)cc1,"inconclusive: 20.6 µM [inhibitor, single point]",–

SMILES,Potency,"activity change, negative = growth inhibition"
CCCCCC(=O)Nc1ccc(C(=O)COC(=O)Cn2cnc3c2c(=O)n(C)c(=O)n3C)cc1,inactive,–
COc1ccc2c(Cl)c(C(=O)NN3CCN(C)CC3)sc2c1,–,inconclusive: -30% [inhibitor]
CCOC(=O)c1cnc2cc(Cl)c(OC)cc2c1NCC1CCCO1 (stereo not given),active: 14.6 µM,–
Clc1cccc(-c2nc(NCCCN3CCOCC3)c3ccccc3n2)c1,active: 23.1 µM,–
CSc1ccc(-c2ccc3c(c2)c(Sc2ccccc2)c(-c2ccccc2)n3C)cc1,inactive,–
Cc1c(Cl)ccc2c(C(=O)NCCN3CCCCC3)cc(-c3ccccn3)nc12,active: 9.2 µM,–
CC(=O)Nc1cc2c(cc1NC(=O)c1cnccn1)OCCO2,inactive,–
O/N=C/c1ccnc(SCc2ccc(Cl)cc2)n1,"inconclusive: 29.1 µM [inhibitor, single point]",–
CN1CCN(c2ccccc2NC(=O)c2cccc(OCc3ccccc3)c2)CC1,active: 20.6 µM,–
CCOc1ccc(S(=O)(=O)Nc2ccc(C(=O)NCC(C)(C)N3CCOCC3)cc2)cc1,inactive,–
Cc1c(Cl)cccc1NC(=S)N(Cc1ccccc1)Cc1cccnc1,inactive,–
COc1ccc(CNS(=O)(=O)c2ccc3c(c2)CCN3C(=O)C2CC2)cc1,"inconclusive: 20.6 µM [inhibitor, partial curve]",–
N#CC(c1ccc(Cl)cc1)(c1ncc(C(F)(F)F)cc1Cl)N1CCOCC1 (stereo not given),inactive,–
CC(C)Cn1cc(C(=O)N2CCOCC2)c2c3ccccc3n(C)c2c1=O,inactive,–
COc1ccccc1CN1CC(C(=O)NCCCCc2ccccn2)CCC1=O (stereo not given),inactive,–
O=S(=O)(/N=C(/Nc1ccccc1)c1ccccc1)c1cccs1,"inconclusive: 29.1 µM [inhibitor, single point]",–
O=C(Cc1ccccc1)Nc1nc2ccccc2[nH]1,active: 7.31 µM,–
O=S(=O)(NC1c2cccc3cccc(c23)C1N1CCN(CCO)CC1)c1ccccc1 (stereo not given),active: 14.6 µM,–
Cc1ccc(NC(=O)Cn2c(=O)n(CCCCCC(=O)NCc3ccc(F)cc3)c(=O)c3sccc32)cc1C,active: 6.51 µM,–
CCCCCC(=O)NC(Cc1ccc(OC)c([N+](=O)[O-])c1)C(=O)O (stereo not given),"inconclusive: 29.1 µM [inhibitor, single point]",–
COC(=O)c1ccc(-c2noc(CN(C)CCC3CCCCO3)n2)cc1 (stereo not given),"inconclusive: 16.4 µM [inhibitor, single point]",–
COc1cccc(Oc2nc(-c3ccncc3)nc3ccccc23)c1,"inconclusive: 18.4 µM [inhibitor, single point]",–
CC(C)[C@H](NC(=O)c1ccccc1)C(=O)NCCc1ccccc1,"inconclusive: 0.146 µM [inhibitor, full curve]",–
COc1ccc(CN(C)S(=O)(=O)c2nnc(NC(=O)c3cccc(F)c3)s2)cc1OC,inactive,–
C[C@@H]1CN([C@H](C)CO)C(=O)CCCn2nncc2CO[C@H]1CN(C)Cc1ccccc1C(=O)O,inactive,–
